The whole screen tested about 48,000 compounds, of which about 550 (1.1%) were called active. Roughly 4% stayed inconclusive and do not appear here. Rule as the data show it: active = potency below about 15 µM; inconclusive = mostly about 16 µM to 33 µM; inactive = weaker than that. This is one part of the list.
These compounds were tested against Lysosomal acid glucosylceramidase (Homo sapiens) (UniProt P04062) (assay: Glucocerebrosidase). Conditions: purified enzyme, resorufin glucoside fluorescence (screen aimed at inhibitors), 20 min.
Chain of UniProt P04062 (P04062 whole entry, looked up): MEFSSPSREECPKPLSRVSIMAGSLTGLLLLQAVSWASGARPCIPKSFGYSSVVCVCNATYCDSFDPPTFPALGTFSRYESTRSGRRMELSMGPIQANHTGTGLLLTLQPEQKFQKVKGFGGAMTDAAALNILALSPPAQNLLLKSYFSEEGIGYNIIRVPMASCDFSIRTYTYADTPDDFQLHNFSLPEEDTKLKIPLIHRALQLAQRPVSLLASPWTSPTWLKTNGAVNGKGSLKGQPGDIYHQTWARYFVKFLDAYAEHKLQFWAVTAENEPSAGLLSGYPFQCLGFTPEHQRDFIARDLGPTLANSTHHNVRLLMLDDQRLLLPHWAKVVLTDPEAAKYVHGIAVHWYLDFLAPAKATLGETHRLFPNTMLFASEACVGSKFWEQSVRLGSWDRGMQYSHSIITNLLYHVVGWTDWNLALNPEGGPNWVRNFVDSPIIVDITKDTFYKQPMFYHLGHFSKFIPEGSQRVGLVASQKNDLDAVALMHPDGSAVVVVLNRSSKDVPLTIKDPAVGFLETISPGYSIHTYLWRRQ
Outline: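 Normal human glucocerebrosidase (0.2 nM final) was assayed with resorufin β-D-glucopyranoside (30 uM final) in 50mM citric acid/KH2PO4, 10mM sodium taurocholate, 0.01% tween-20, pH 5.9. Compounds were titrated; fluorescence (Ex 548, Em 600) read after 20 min at RT.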
For Cc1ccc(C(C)NC(=O)c2c(C)noc2C)cc1C (centres undefined), the Potency was inactive: > 76.9 µM. In the case of CC(C)OC(=O)Cn1c(=O)sc2ccccc21, the Potency is reported as inactive: > 76.9 µM. In the case of CCn1c(=O)n(CC)c2cc(S(N)(=O)=O)c(C)cc21, the Potency is reported as inactive: > 76.9 µM. In the case of Cc1noc(C)c1COC(=O)c1cc(C)n(-c2ccccc2)c1C, the Potency is reported as inactive: > 76.9 µM. CC1Cc2ccccc2N1C(=O)CN1C(=O)CN(C)C(=O)c2ccccc21 (centres undefined) was tested, and the Potency was inactive: > 76.9 µM. For O=C(CN1C(=O)c2ccccc2S1(=O)=O)N1CCN(c2ccc(F)cc2)CC1, the Potency was inactive: > 76.9 µM. CC1(C)CC(=O)C2=C(C1)NC(=O)CC2C(=O)NCc1ccc(F)cc1 (centres undefined) was tested, and the Potency was inactive: > 76.9 µM. For O=C(NCc1ccccc1)N1CCn2c(nc3ccccc32)C1, the Potency was inactive: > 76.9 µM. In the case of Cc1ccc(C)c(CSc2nnc(-c3ccccn3)n2N)c1, the Potency is reported as inactive: > 76.9 µM. In the case of NC(=O)CNC(=O)C1CCCc2c1[nH]c1ccc(Cl)cc21 (centres undefined), the Potency is reported as inactive: > 76.9 µM. With CCSc1nnc(NC(=O)CSc2nnc(Cc3cccn3C)n2CCc2ccccc2)s1 the Potency was inactive: > 76.9 µM. In the case of CCCCSc1nc(C)c(CC(=O)O)c(=O)[nH]1, the Potency is reported as inactive: > 76.9 µM. In the case of CCOc1ccc(-c2nnc(-c3cccnc3)o2)cc1OCC, the Potency is reported as inactive: > 76.9 µM. In the case of Cn1cnc2c1c(=O)n(Cc1c(Cl)cccc1Cl)c(=O)n2C, the Potency is reported as inactive: > 76.9 µM. COC(=O)n1c(=O)oc2cc(S(=O)(=O)N3CCOCC3)ccc21 was tested, and the Potency was inactive: > 76.9 µM. In the case of O=C(CSc1nnc(-c2cccs2)n1-c1ccccc1)NCC1CCCO1 (centres undefined), the Potency is reported as inactive: > 76.9 µM. With O=C(c1ccccc1-c1nc2ccccc2[nH]1)N1CCCCC1 the Potency was inactive: > 76.9 µM. With CS(=O)(=O)N1CCc2cc(S(=O)(=O)Nc3ccc4c(c3)OCCO4)ccc21 the Potency was inactive: > 76.9 µM. For CC(SCc1ccccc1)C(=O)NC1CCCC1 (centres undefined), the Potency was inactive: > 76.9 µM. For Fc1ccc(Br)cc1C1C=C(c2ccc(Br)s2)Nc2ncnn21 (centres undefined), the Potency was inactive: > 76.9 µM. For COc1ccc(C)cc1-n1nnnc1SCc1nc2ccccc2s1, the Potency was inactive: > 76.9 µM. In the case of c1ccc(-c2nc[nH]c2-c2ccccc2)cc1, the Potency is reported as inactive: > 76.9 µM. For O=C(NCCc1c[nH]c2ccccc12)c1ccc(S(=O)(=O)NCc2ccco2)cc1, the Potency was “inactive”. For COc1ccc(OC)c(C(=O)CC2OC(=O)c3ccccc32)c1 (centres undefined), the Potency was inactive: > 76.9 µM. In the case of CC1(C)CC2(CC(C)(C)NC(=O)N2)NC(=O)N1, the Potency is reported as inactive: > 76.9 µM. With N#Cc1nc(COc2ccc(Cl)cc2Cl)oc1N1CCN(c2ccccc2)CC1 the Potency was inactive: > 76.9 µM. For CCC(=O)N1c2ccc(S(=O)(=O)CCC(=O)NC3CCCC3)cc2CC1C (centres undefined), the Potency was inactive: > 76.9 µM. With O=c1c2cc3c(cc2[nH]c(=S)n1Cc1ccco1)OCO3 the Potency was inactive: > 76.9 µM. For CC(=O)c1ccc(NC(=O)c2ccc(S(=O)(=O)N3CCCC3)cc2)cc1, the Potency was “inactive”. COc1cc(OC)c(NC(=O)c2ccoc2C)cc1Cl was tested, and the Potency was inactive: > 76.9 µM. Cc1cccc(N2CCN(C(=O)COc3cc(=O)n(C)c4ccccc34)CC2C)c1 (centres undefined) was tested, and the Potency was inactive: > 76.9 µM. Fc1ccc(-c2nnc(CN3CCN(c4ncc(C(F)(F)F)cc4Cl)CC3)o2)cc1 was tested, and the Potency was inactive: > 76.9 µM. O=C(NC1CCCC1)C1CC1c1ccccc1 (centres undefined) was tested, and the Potency was inactive: > 76.9 µM. CCCOc1ccc(C(C)(O)CN2CCOCC2)cc1 (centres undefined) was tested, and the Potency was inactive: > 76.9 µM. For O/N=C1/CCSc2ccccc21, the Potency was inactive: > 76.9 µM. For O=C(O)C1CC(=O)N(CCc2c[nH]c3ccccc23)C1 (centres undefined), the Potency was inactive: > 76.9 µM. CCOC(=O)N1CCC(NC(=O)Cn2cccc2C(=O)c2ccccc2C)CC1 was tested, and the Potency was inactive: > 76.9 µM. With COc1ccc(Cl)cc1NC(=O)c1oc(C)nc1C the Potency was inactive: > 76.9 µM. COc1ccccc1-n1c(CNC(=O)c2ccco2)nnc1SCC(=O)Nc1cc(C)ccc1C was tested, and the Potency was inactive: > 76.9 µM. For Cc1ccc(N(CC(=O)O)S(=O)(=O)c2cccc3nonc23)cc1, the Potency was inactive: > 76.9 µM. For Cc1ccc(C(C(=O)NC2CCCCC2)N2CCOCC2)cc1 (centres undefined), the Potency was inactive: > 76.9 µM. COc1ccc(N2C3=[N+](CC2(C)O)c2ccccc2CC3)cc1 (centres undefined) was tested, and the Potency was inactive: > 76.9 µM. With Cc1cccc(-n2cnc3cc(C(=O)N4CCCCC4)ccc32)c1 the Potency was inactive: > 76.9 µM. In the case of Cc1cc(CN2C(=O)c3ccccc3C2=O)on1, the Potency is reported as inactive: > 76.9 µM. In the case of CC1(Cc2cn(CCC#N)c3ccccc23)OCCO1, the Potency is reported as active: 14.4 µM. COc1ccc(-c2cc3ccccc3n2CC(O)Cn2nc(C)cc2C)cc1 (centres undefined) was tested, and the Potency was inactive: > 76.9 µM. For O=C(CN1C(=O)COc2ccccc21)N(Cc1ccc2c(c1)OCO2)CC1CCCO1 (centres undefined), the Potency was inactive: > 76.9 µM. With CN(Cc1ccccc1)c1nc2c(c(=O)[nH]c(=O)n2C)n1CCOc1ccccc1 the Potency was inactive: > 76.9 µM. COC(=O)c1cc(Br)c(=O)n(-c2ccccc2OC)c1 was tested, and the Potency was inactive: > 76.9 µM. For COC(=O)[C@@H](NC(=O)Nc1ccc(C(C)=O)cc1)C(C)C, the Potency was inactive: > 76.9 µM. COc1ccccc1NC(=O)C1CCCCC1 was tested, and the Potency was inactive: > 76.9 µM. O=C(CCCCCn1c(=S)[nH]c2cc3c(cc2c1=O)OCO3)N1CCN(C2CCCCC2)CC1 was tested, and the Potency was active: 0.896 µM. COc1ccc(OC)c(NC(=O)C2C3CC4OC(=O)C2C4C3)c1 (centres undefined) was tested, and the Potency was inactive: > 76.9 µM. In the case of O=C(Nc1c(F)c(F)c(F)c(F)c1F)NC1CCCCC1, the Potency is reported as inactive: > 76.9 µM. With C=CCn1c(-c2ccc(OC)c(OC)c2)cs/c1=N\c1ccccn1 the Potency was inactive: > 76.9 µM. For COc1cc(NC(=O)c2ccc(COc3ccccc3Br)o2)cc(OC)c1OC, the Potency was inactive: > 76.9 µM. In the case of COC(=O)N1CC(=O)N(OC)C1c1ccc(Cl)cc1Cl (centres undefined), the Potency is reported as inactive: > 76.9 µM. For Cc1ccc(C)c(NC(=O)CCN2CC(C)OC(C)C2)c1 (centres undefined), the Potency was inactive: > 76.9 µM. In the case of COc1ccc(-c2cc3nc(C)c(CCC(=O)NCc4ccco4)c(C)n3n2)c(OC)c1, the Potency is reported as inactive: > 76.9 µM.
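Also: the screen sought inhibitors.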
Potency is read from the fitted curve at half-maximal effect.
